Experimental data published in article PMC6919601, “Identification of Plasmodium dipeptidyl aminopeptidase allosteric inhibitors by high throughput screening” (PLoS ONE, 2019).
Out of some 110,000 compounds screened, about 230 (0.21%) showed an effect of 50% or more. The list shows a part of the results.

Target: DPAP1 (Plasmodium falciparum, UniProt Q8IIJ9)
Test: primary screen, percent inhibition; read by cleavage of a fluorogenic dipeptide substrate; higher = more effect of the substance
Design: species or system P. falciparum D10 trophozoite lysates; single well
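Note: 30 min substrate incubation versus DMSO and 10 µM JCP410 controls.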

Chain of DPAP1 (Q8IIJ9 whole entry, looked up): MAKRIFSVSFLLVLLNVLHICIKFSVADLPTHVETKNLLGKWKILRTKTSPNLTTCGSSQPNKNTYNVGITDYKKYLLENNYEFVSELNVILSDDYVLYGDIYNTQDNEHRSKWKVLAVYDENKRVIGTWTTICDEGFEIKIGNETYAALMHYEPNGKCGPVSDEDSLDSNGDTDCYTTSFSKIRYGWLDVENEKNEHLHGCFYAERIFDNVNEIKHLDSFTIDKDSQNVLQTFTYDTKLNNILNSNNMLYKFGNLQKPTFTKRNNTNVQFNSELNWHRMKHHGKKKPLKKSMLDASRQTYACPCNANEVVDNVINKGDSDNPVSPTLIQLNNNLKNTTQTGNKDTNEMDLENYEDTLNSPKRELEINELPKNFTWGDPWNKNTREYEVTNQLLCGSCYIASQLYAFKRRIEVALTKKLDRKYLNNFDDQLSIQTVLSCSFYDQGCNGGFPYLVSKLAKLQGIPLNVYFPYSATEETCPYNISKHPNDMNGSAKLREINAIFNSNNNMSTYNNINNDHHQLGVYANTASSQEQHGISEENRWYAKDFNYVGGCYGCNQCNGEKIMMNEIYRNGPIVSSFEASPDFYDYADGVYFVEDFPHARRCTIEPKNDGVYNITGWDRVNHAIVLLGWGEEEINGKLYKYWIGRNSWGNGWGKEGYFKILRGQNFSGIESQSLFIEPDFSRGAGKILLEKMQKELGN

Row | Structure (SMILES) | % Inhibition @ 10 uM [%]
1 | Cc1c2cnn(CC(=O)NCCCN(C)C3CCCCC3)c(=O)c2c(C)n1Cc1ccccc1F | -0.447
2 | N=C(NOC(=O)Cc1ccc(Cl)cc1)c1ccncc1 | 3.66
3 | Cc1ccc(C2CC(=O)NC(SCC(=O)N3CCCC3)=C2C#N)cc1 (stereo not shown) | 0.983
4 | O=C(CCC(=O)Nc1ccc2ccccc2c1)Nc1ccc2ccccc2c1 | -4.6
5 | CCOc1ccc(C(CC(=O)O)NC(C)=O)cc1 (stereo not shown) | 1.62
6 | CCn1cc(CCC(=O)NCCN2CCOCC2)c2ccccc21 | 3.28
7 | Cc1cc(C)c2c3c(sc2n1)C1(CCCCC1)C(C#N)=C(N)O3 | 13.7
8 | CNc1oc(/C=C/c2ccc(OC)c(OC)c2)nc1C#N | 0.895
9 | COc1ccc(CN2CC(C(=O)NCC3CCCO3)CC2=O)cc1 (stereo not shown) | -1.21
10 | COc1ccc(C(=O)c2sc3nc4c(c(-c5cccs5)c3c2N)CN(C)CC4)cc1 | -3.46
11 | COC(=O)c1cn(CC(=O)N2CCOCC2)c2ccccc12 | 1.62
12 | O=C(NCc1cccc2ccccc12)C12CC3CC(CC(C3)C1)C2 | 3.39
13 | Cc1cc(C)c(C)c(S(=O)(=O)N2CC(C)OC(C)C2)c1C (stereo not shown) | -4.4
14 | Cc1c(C(=O)NCc2cccnc2)oc2ccc3c(c12)C(=O)CC1(CCC(C)CC1)O3 (stereo not shown) | -1.08
15 | CN1C(=O)/C(=C/c2cc3c(cc2Cl)OCO3)S/C1=N/c1ccc(C(=O)O)cc1 | 4.3
16 | CN1CCN(C(=O)CCc2nc(-c3ccc(Cl)cc3)no2)CC1 | -10.9
17 | COc1ccc(CN2CCSCC2)c(OC)c1 | -3.71
18 | CC1=C(c2ccc(C)c(C)c2)S(=O)(=O)N=C1NC1CCCCCC1 | -4.68
19 | CCOC(=O)c1ccc2nc(C(F)(F)F)nc(NCCCN3CCOCC3)c2c1 | -2.91
20 | Cc1ccsc1CCNC(=O)C1CCC(C/N=c2/c(N3CCOCC3)c(O)c2=O)CC1 (stereo not shown) | 5.91
21 | Clc1ccc(Cl)c(OCCCN2CCCCC2)c1 | -4.8
22 | C=CCn1c(SCC(=O)NC2CCCCC2)nnc1-c1ccc(OC)cc1 | -11.4
23 | CCSC1=N/C(=C\c2ccc(C(C)C)cc2)C(=O)S1 | 1.91
24 | Oc1ccc(Cl)cc1C(C#Cc1ccccc1)N1CCOCC1 (stereo not shown) | -3.77
25 | O=C(Nc1sc2c(c1C(=O)NC1CCCCC1)CCCC2)c1ccccc1 | 1.39

Row | Structure (SMILES) | % Inhibition @ 10 uM [%]
26 | Cc1ccc(Cn2nnc3c(=O)n(CC(=O)NCc4ccco4)cnc32)cc1 | 2.65
27 | COc1ccc(Cn2c(SCC(=O)N3CCCC3)nc3c(sc4cccc(F)c43)c2=O)cc1 | 5.74
28 | CCc1nc2ccccc2c(NC(=O)CN2CCN(C(=O)c3ccco3)CC2)c1C | 0.266
29 | COc1cccc(CC2=NOC(C(=O)O)C2)c1 (stereo not shown) | -4.11
30 | Cc1ccc(NC(=O)C(C)N2C(=O)c3ccccc3C2=O)cc1C (stereo not shown) | -2.73
31 | CN1C(=O)C(=Cc2ccc(N3CCCCC3)o2)C(=O)N(C)C1=O | -6.6
32 | Cc1cccc(-n2c(C)cc(/C=C3\C(=N)N4N=C(S(C)(=O)=O)SC4=NC3=O)c2C)c1 | 52.6
33 | O=C(Nc1ccc2ccccc2c1)c1cccc(Cl)c1 | -1.48
34 | CCN(CC)CC(O)CN1c2ccccc2Sc2ccccc21 (stereo not shown) | 3.53
35 | CCc1ccc(NS(=O)(=O)c2ccc(F)cc2)cc1 | -1.45
36 | O=C(O)CCC(=O)N1CCN(C(=O)c2ccco2)CC1 | 4.73
37 | Cc1cccc(-c2nc(CS(=O)CC(=O)NCCN(Cc3ccccc3)C(C)C)c(C)o2)c1 (stereo not shown) | -3.08
38 | COc1ccc(C2SCCN2S(=O)(=O)c2ccc(C)c(C)c2)cc1 (stereo not shown) | 3.35
39 | COC(=O)c1cc2ccsc2n1Cc1ccc(F)cc1Cl | -8.02
40 | CCOC(=O)C1=C(C)N=C(SC)N(C)C1c1ccccc1 (stereo not shown) | -2.56
41 | Fc1ccc(-c2nnc3ccc(N4CCN(C(=S)NC5CCCCC5)CC4)nn23)cc1 | -3.08
42 | COC(=O)c1c(NC(=O)c2ccccc2F)sc2c1CCCC2 | -6.74
43 | COc1coc(CSC(=S)N(C)C)cc1=O | 6.18
44 | Fc1ccc(CN2CCN(c3ccccc3Cl)CC2)c(F)c1 | -3.82
45 | N#Cc1ccccc1Sc1ccccc1C(=O)N1CCN(Cc2ccc3c(c2)OCO3)CC1 | 2.37
46 | CC(C)C(=O)c1c(O)oc2ccccc2c1=O | 0.238
47 | CC(=O)C1=C(C)N=c2s/c(=C/c3ccc(N(C)C)cc3)c(=O)n2C1c1ccc(N(C)C)cc1 (stereo not shown) | -1.65
48 | CCOc1ccccc1NC(=O)Cn1nc(C(F)(F)F)cc1C1CC1 | 3.48
49 | c1ccc(-n2nnnc2CSc2nnc3sc4ccccc4n23)cc1 | 2
50 | C=CCc1cc(/C=C2\C(=N)N3C(C)=CSC3=NC2=O)cc(OC)c1OCCOc1ccccc1 | -5.15

Row | Structure (SMILES) | % Inhibition @ 10 uM [%]
51 | O=C1c2cccnc2C(=O)N1CCc1ccc(S(=O)(=O)NCc2cccnc2)cc1 | 3.85
52 | COc1ccc(-c2cc(-c3cccs3)nc3sc(C(=O)NC(C)C)c(N)c23)cc1 | 3.39
53 | CC(C)CC(NC(=O)c1ccc(NC(=O)NCc2ccco2)cc1)C(=O)NCC#N (stereo not shown) | -3.97
54 | CC(=O)Nc1nc(C)nc(C)c1C(C)=O | 3.76
55 | CC(=O)Nc1ccc2c(c1)C1C=CCC1C(c1ccc(F)cc1)N2 (stereo not shown) | 0.177
56 | CCCCCCCCNC(=O)c1ccc(NC(C)=O)cc1 | -9
57 | N#C/C(=C/c1ccc(F)cc1)c1nc(-c2ccc(Br)cc2)cs1 | -3.04
58 | CCOc1cc(/C=C2/C(=N)N3OC(C)=CC3=NC2=O)ccc1OC(C)c1ccccc1 (stereo not shown) | -1.43
59 | Cc1ccc(C)c(-n2nnc(-c3nc(-c4ccncc4)no3)c2N)c1 | 2.71
60 | Nc1c(C(=O)Nc2nc(-c3ccccc3)cs2)sc2nc3c(cc12)CCCCC3 | 3.8
61 | COc1ccc(CCNC(=O)c2cc(-c3ccc4c(c3)OCO4)on2)cc1OC | -7.15
62 | COC(=O)c1ccc(NC(=O)c2ccc(Cl)cc2Cl)cc1 | 4.66
63 | O=c1c2ccccc2nc(CNCC2CCCO2)n1-c1ccc(F)cc1 (stereo not shown) | 0.245
64 | Cc1nc2sccn2c(=O)c1S(=O)(=O)N1CCc2ccccc2C1 | 0.857
65 | CCCCN(C)C(=O)c1cnn(-c2ccc(C)cc2)c1-n1cccc1 | -0.231
66 | CC(=O)NC1=NN(C(C)=O)C2(CCSc3ccc4ccccc4c32)S1 (stereo not shown) | 2.69
67 | CCN1CCN(c2ncnc3onc(-c4ccc(Cl)cc4)c23)CC1 | -3.95
68 | CC(C)Cn1c(=O)c2sccc2n2c(CCCC(=O)N3CCC(N4CCCCC4)CC3)nnc12 | 5.95
69 | CC(=O)Nc1ccc(NC(=O)CN(c2ccc(Cl)cc2C)S(=O)(=O)c2ccccc2)cc1 | -1.82
70 | COc1cc2nc(NCCCOC(C)C)n3nc(-c4ccccc4)nc3c2cc1OC | 0.981
71 | COc1ccccc1C(=O)NC1CCC(NC(=O)c2ccccc2OC)CC1 (stereo not shown) | 4.05
72 | O=C(Nc1ccc(-c2nc3cc(NC(=O)c4ccccc4)ccc3[nH]2)cc1)c1ccccc1 | 8.76
73 | CCCCN1C(=O)c2[nH]nc(-c3ccccc3O)c2C1c1ccc(F)cc1 (stereo not shown) | 0.366
74 | COc1ccc(C)cc1N(CC(=O)NCc1ccccn1)S(=O)(=O)c1ccc(C)cc1 | -7.58
75 | C=C(C)Cn1c(C(C)NC(=O)COC)nc2ccccc21 (stereo not shown) | -2.74

Row | Structure (SMILES) | % Inhibition @ 10 uM [%]
76 | COC(=O)c1sc2nc3c(c(-c4ccccc4Cl)c2c1N)CCCC3 | 2.8
77 | CCC(CC)COC(=O)C1=C(C)NC(=O)NC1c1ccc(Cl)c(Cl)c1 (stereo not shown) | -3.6
78 | Cc1cccn2cc(CNC(=O)c3ccco3)nc12 | -1.72
79 | CCOc1ccc(Cn2nnc3c(O)nc(C4CCN(C(=O)c5cccc(Cl)c5)CC4)nc32)cc1 | -1.37
80 | CC(=O)c1c(C)[nH]c(C(=O)N2CCC3(CC2)OCCO3)c1C | 1.23
81 | Cc1cc(C)c2c(n1)SCC(=O)N2CCCC(=O)NCCCOC(C)C | -9.91
82 | Nc1c(-c2nc(-c3ccccc3)cs2)c2ccccn2c1C(=O)c1ccccc1 | 1
83 | COc1ccc(CNc2cc(C)cc(C)c2)cc1Br | 1.84
84 | O=C(O)c1cc2ccccc2nc1CSc1ccccc1 | -1.17
85 | Cc1cc2nc(O)c(O)nc2cc1S(=O)(=O)N(C)C1CCCCC1 | -1.43
86 | CC(=O)NC1C(O)CC2C3CC=C4CC(O)CCC4(C)C3CCC21C (stereo not shown) | 5.2
87 | Cc1ccc(C(NC(N)=O)c2ccccc2C)cc1 (stereo not shown) | 5.04
88 | COc1ccc(OC)c(NC(=O)CSc2nc3ccc(N)cc3s2)c1 | -4.6
89 | CC(C(=O)NCc1cccc(Cl)c1)n1c2ccccc2c2cnn(C)c(=O)c21 (stereo not shown) | -0.281
90 | COc1ccc(C2C(C#N)=C(N)Oc3[nH]nc(-c4ccc5ccccc5c4)c32)cc1OC (stereo not shown) | 1.03
91 | COc1cccc(C(=O)NC2(C(F)(F)F)NC(=O)N(C(C)c3ccccc3)C2=O)c1 (stereo not shown) | -3.33
92 | O=C(O)CN1C(=O)CSc2ncccc21 | 0.0882
93 | CCN(CC)S(=O)(=O)c1nnc(NC(=O)c2ccc(OC)c(OC)c2)s1 | -3.51
94 | COc1ccc(/C=C2\Sc3ccccc3C2=O)cc1OC | -4.68
95 | O=C(Nc1ccccc1C(F)(F)F)c1cnccn1 | -5.48
96 | COc1ccc(Br)cc1C(=O)Nc1ccc(Cl)cc1C(=O)O | 2.44
97 | Cc1c(CNCCC2=CCCCC2)c(C(=O)O)c(C)n1Cc1ccc(F)cc1 | -3.67
98 | Cc1cccc2c1-c1sc(C(=O)NCCC(C)C)cc1CO2 | 0.291
99 | O=c1cc(-c2ccccc2)c2ccc3c(c2o1)CN(Cc1ccco1)CO3 | 2.54
100 | CCn1cnc2sc3c(c2c1=O)CCC(C(C)(C)C)C3 (stereo not shown) | 1.8
